# Test results as given in paper PMC10668032.
# The list shows a part of the results. At the low end of the ranking the order means little.
# Molecular target: SIX1 homeodomain (reference allele) (UniProt Q15475)
# Experiment: universal protein binding microarray
# Settings: Universal all-10-mer PBM (8x60K, AMADID 030236), 300 nM GST-tagged protein, Alexa Fluor 488 anti-GST; buffer, salt, pH and temperature not stated; high values mean tight binding; most listed sequences are background and not binding sites; double strand, one strand shown
row,Sequence,binding signal [E-score]
1,GGAAACCC,-0.0219
2,TGCGAAAA,-0.161
3,ATTCCTTA,-0.244
4,GAAAAACC,-0.12
5,CCTCAAGC,-0.104
6,ACTCCTGA,0.09
7,ACGATATC,0.454
8,CAAGTCTA,-0.168
9,AAGGCACA,-0.289
10,GATTTGTA,-0.125
11,GGTTGAAC,-0.1
12,CTCGGGTA,0.08
13,GTTCCTAA,-0.084
14,CTATTCGC,-0.0657
15,AGGATGTA,0.072
16,CTGTTTGA,-0.0676
17,CAACTAGC,-0.0216
18,AAGGTAAC,-0.0708
19,CGGTTGGA,-0.0116
20,ATTGTACC,0.0609
21,AAGTCAAG,-0.204
22,GCTAGAAA,0.00582
23,CTGAGTCC,-0.252
24,GAACGTCC,-0.137

row,Sequence,binding signal [E-score]
1,ACCCCTGA,0.187
2,AGAACATG,-0.012
3,CCACCTAC,-0.125
4,AATCGAAG,-0.186
5,CCAGACCG,0.0478
6,GCAAGCAA,-0.203
7,CCAAACGG,-0.124
8,ACCTGACA,0.188
9,CCTAGTCC,-0.171
10,GACGTATA,0.213
11,CTTGGGGC,0.0853
12,GGAAATTA,-0.105
13,CTGAAGAC,-0.121
14,ATCCTGTC,0.228
15,AACTTATC,-0.00993
16,GCTTCTGA,0.0246
17,AATTCGGT,-0.00995
18,AAATGGTT,-0.246
19,AGACGAAC,-0.12
20,GTACATGA,0.00487
21,ATATATAA,0.298
22,GCTCAGGA,-0.00184
23,ATCGATAG,0.275
24,GAATTCCA,-0.0335

row,Sequence,binding signal [E-score]
1,ACAAGCAT,-0.073
2,ATCCAACA,0.293
3,AGGGTAAA,0.0458
4,AAATAGTT,-0.365
5,ATAGCAGG,0.292
6,AGTCGCGA,0.0471
7,AGCACGGA,-0.0182
8,AATCCAAC,0.155
9,CTGCCTAC,-0.0373
10,AAGCCGCG,-0.0524
11,CTAACGCA,0.0757
12,CATGAGAG,-0.0182
13,GAACGCTA,-0.167
14,AGATTCGG,-0.0448
15,ACCCCCCA,0.131
16,ATTAGAAT,0.0313
17,CACCACCC,0.0562
18,ATTAAAGA,-0.0462
19,GTCTCGCA,-0.0313
20,AGGTTTGC,-0.129
21,GCCATCCC,0.12
22,AATGCCCA,-0.00368
23,CCGATGCC,0.0988
24,CTGGAAGA,-0.0242

row,Sequence,binding signal [E-score]
1,CGGAGCTA,-0.0612
2,ATTACGAG,0.0743
3,AATTGCGA,-0.142
4,CTGTGCGC,-0.121
5,CTGAAGAA,-0.307
6,AATGTCTG,-0.112
7,CCCCCACA,-0.055
8,AACTTGAT,0.275
9,CCCGAAAG,-0.103
10,AGCGACAA,-0.255
11,AGTTAAGA,-0.0724
12,AACAATCG,-0.0744
13,GGGCCTAC,-0.251
14,TCCGTTCA,-0.0554
15,GCCTCAGA,0.105
16,AAGCCACG,-0.102
17,CATGATCC,0.394
18,TTAGTCAA,-0.169
19,AAACGTGT,-0.202
20,CCCACTGA,0.191
21,GGGCTTAA,-0.157
22,AGGCTAAA,-0.228
